Measured values: the supplement of paper PMC3334620
Over roughly 33,000 sequences, “E-score (-0.5 to 0.5)” has its median near -0.011; the highest 2% begin near 0.28. Some of the results follow.

The sequences below were run against T1, Gcr1 (UniProt P07261) (assay: PBM E-score (8-mer binding enrichment) (E-score (-0.5 to 0.5)); higher = stronger / more preferred TF binding; most listed sequences are background and not binding sites). Details: protein concentration: 100 nM; construct: GST-full length.
T1 sequence: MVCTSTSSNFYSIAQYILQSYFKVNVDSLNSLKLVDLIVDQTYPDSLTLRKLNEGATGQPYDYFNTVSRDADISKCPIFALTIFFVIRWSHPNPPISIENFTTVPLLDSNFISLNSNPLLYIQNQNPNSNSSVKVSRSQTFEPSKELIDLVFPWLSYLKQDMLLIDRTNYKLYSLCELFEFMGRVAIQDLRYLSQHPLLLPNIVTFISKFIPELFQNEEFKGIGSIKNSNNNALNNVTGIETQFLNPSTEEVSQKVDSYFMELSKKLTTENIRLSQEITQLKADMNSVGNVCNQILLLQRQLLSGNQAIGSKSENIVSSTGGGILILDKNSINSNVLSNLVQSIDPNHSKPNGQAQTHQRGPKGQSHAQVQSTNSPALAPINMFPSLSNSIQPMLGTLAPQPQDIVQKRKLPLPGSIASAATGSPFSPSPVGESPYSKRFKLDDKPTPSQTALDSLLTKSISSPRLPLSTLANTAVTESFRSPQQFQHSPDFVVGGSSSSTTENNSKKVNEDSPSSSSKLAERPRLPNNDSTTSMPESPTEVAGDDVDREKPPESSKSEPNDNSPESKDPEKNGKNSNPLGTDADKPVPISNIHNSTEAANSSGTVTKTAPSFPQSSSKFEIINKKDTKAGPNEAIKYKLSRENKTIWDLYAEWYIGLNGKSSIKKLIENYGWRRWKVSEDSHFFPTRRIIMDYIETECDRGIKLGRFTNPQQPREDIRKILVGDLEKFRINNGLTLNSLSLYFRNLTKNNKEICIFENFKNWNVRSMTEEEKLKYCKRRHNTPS
Method in brief: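 The E-score, a modified Wilcoxon-Mann-Whitney statistic, was computed by the Universal PBM Analysis Suite for every ungapped eight-base word pooled with its reverse complement. Scans behind it were normalised with masliner after bound GST-tagged yeast transcription factors were detected with fluorescent anti-GST. The proteins, at about 100-200 nM, had been applied to universal all-10-mer Agilent arrays made double-stranded by primer extension.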

| Sequence | PBM E-score |
| --- | --- |
| GACGACTC | -0.0124 |
| CCCAACGA | -0.087 |
| ACCTTAGT | 0.135 |
| GAGGGATC | -0.0613 |
| AGTCGGCG | 0.0915 |
| GAAGTTTA | 0.203 |
| ACTCGTGC | 0.0192 |
| AGCTGAAA | 0.0612 |
| AGGTACTC | 0.0501 |
| CACGATCA | -0.0966 |
| CGCATGCC | -0.00713 |
| ACCTGCGG | -0.0518 |
| ATGGCTCA | -0.132 |
| AATGTCCT | -0.237 |
| AGACCTCA | -0.167 |
| AACCTGAC | -0.0316 |
| AGGACTCA | -0.154 |
| CGTCCCAG | -0.0215 |
| ACGTGTTG | -0.0129 |
| CAGTGGCG | -0.0284 |
| AGATGCTC | 0.0444 |
| GTAGGCCA | -0.106 |
| CTCGCAGC | 0.111 |
| GAAGTTGC | 0.176 |
| ACCGATGG | -0.017 |

| Sequence | PBM E-score |
| --- | --- |
| AGCTATAC | 0.0742 |
| CGACATAA | 0.132 |
| ACGAAGGC | -0.0795 |
| ACCGAAGC | 0.0747 |
| ATCGCGCG | -0.268 |
| CGCCGATA | -0.252 |
| ACGCCTCT | 0.114 |
| CCGCAGGA | -0.0064 |
| CGAGCCTC | -0.0914 |
| CCGTAAAC | -0.0216 |
| CCATGGAC | 0.0953 |
| GCCAGCCC | -0.0556 |
| TCACCTGA | -0.116 |
| ATCGATCA | -0.203 |
| ACAGAAGT | 0.123 |
| GATCATCA | -0.211 |
| AGGCGACC | 0.0593 |
| CGAGGGTC | -0.166 |
| GAGGCGAA | -0.0281 |
| CTTGACAA | -0.103 |
| GAACATTC | 0.0406 |
| GCTGTACA | -0.0854 |
| AATTTGCG | 0.0847 |
| ATGTGGGA | -0.0517 |
| ACTGGAAA | 0.0867 |

| Sequence | PBM E-score |
| --- | --- |
| GACAAGCA | -0.0663 |
| AAGCTCGT | -0.145 |
| ATTCTTTC | 0.0196 |
| GAGCGAGA | -0.00255 |
| CACTGGAA | 0.318 |
| ACATTAGG | 0.131 |
| GGCCTGAC | -0.138 |
| ATTTGCCG | -0.0823 |
| AACATACG | 0.027 |
| CTCTCCTA | -0.0866 |
| AGTGCTTG | 0.00221 |
| CGAATGTC | 0.0561 |
| ACCAATAG | -0.0506 |
| CCTCTGCC | -0.306 |
| AATGCCCG | -0.207 |
| AAGCACCA | 0.0436 |
| TAGCAACA | -0.0292 |
| CCGCTAGC | -0.0553 |
| ACCTTACC | 0.05 |
| AGCTGTAT | -0.158 |
| GGACGCGA | 0.0936 |
| GAGGCTAC | 0.102 |
| AATAGGCA | 0.19 |
| ATGAACAA | 0.0275 |
| AACAGCGA | 0.0429 |

| Sequence | PBM E-score |
| --- | --- |
| GAATAGCC | -0.102 |
| GAAGGACC | -0.0426 |
| AGTGGTTG | 0.235 |
| ACGGCGTG | 0.111 |
| CGAGTTTC | -0.0399 |
| TCTTAAAA | 0.0331 |
| GTTATGGA | 0.0104 |
| CTTAGTAA | 0.00321 |
| CTTACGTC | -0.22 |
| TCATTAAA | 0.246 |
| AAAGGTCG | -0.0877 |
| ACGAAGGA | -0.0775 |
| ACTGTAGG | -0.02 |
| CACTCCGA | -0.0102 |
| AGCACGCT | -0.123 |
| ACTCTACA | 0.0674 |
| TCCATGCA | -0.0599 |
| AAACGGTA | -0.058 |
| ACCCACGT | -0.0778 |
| CTCTCTGC | -0.141 |
| ATCGTCAA | -0.0894 |
| CACCTTAG | 0.141 |
| AGCATTAG | -0.155 |
| ATCGTTGA | -0.0165 |
| CGGGATTA | -0.0698 |

| Sequence | PBM E-score |
| --- | --- |
| ATAAATGG | 0.0655 |
| ATGACGAG | -0.215 |
| ACTGAGAA | 0.00902 |
| GCAACCCC | 0.0451 |
| ACGGACTC | -0.0534 |
| GCTCTTTA | -0.0543 |
| ACATTTAT | -0.12 |
| GAAATGTC | -0.172 |
| AAGATTGA | -0.134 |
| AACACGCC | -0.137 |
| GGATAAGA | 0.169 |
| AGTAAATC | 0.066 |
| CGTATCCA | 0.00273 |
| GAATAGTA | -0.0935 |
| GAGCGACC | 0.0254 |
| CAAACCCA | 0.0871 |
| CTAAGAAG | 0.251 |
| CGGACAAG | -0.121 |
| CACTCCCG | -0.134 |
| CCACCGAA | -0.0589 |
| ATTCATGA | 0.123 |
| CAAGGGCA | -0.136 |
| ACGCCATC | -0.0108 |
| ATGAGACC | -0.182 |
| ATCAAAGG | -0.166 |

| Sequence | PBM E-score |
| --- | --- |
| AATTATCC | -0.0869 |
| ACATGGTA | -0.124 |
| CTCTTGTC | -0.051 |
| AGATTTAG | 0.188 |
| TACATTAA | 0.127 |
| GCGGGCCA | -0.142 |
| GTGTAATA | 0.186 |
| ATGGCCAA | -0.23 |
| CTCGTTGC | -0.122 |
| ATGGTTTA | -0.176 |
| CCATTATA | 0.133 |
| AGCGAGGG | -0.032 |
| CGAAAGAA | 0.158 |
| AGTGCGAC | -0.209 |
| ACCCGAGG | 0.0242 |
| TGTGTTAA | 0.0586 |
| TACTGGGA | 0.166 |
| ACGATGGC | -0.219 |
| AACAGAAA | 0.0566 |
| CGTCTTGA | 0.0798 |
| ATACATGC | -0.00642 |
| CGCGTTCA | -0.011 |
| CATGCCGG | -0.0651 |
| GCAGGAAC | -0.0184 |
| CTATGACA | -0.123 |

| Sequence | PBM E-score |
| --- | --- |
| GTACACAA | 0.0895 |
| GTACAACA | 0.0044 |
| CAAACCAG | -0.0395 |
| CCCGAACC | -0.11 |
| CCTAAGCC | -0.235 |
| CACACCGG | 0.0972 |
| CACACGCA | 0.057 |
| CAGTCACG | -0.0771 |
| CCTTATAC | 0.0665 |
| CCTGGTAG | 0.0486 |
| GGTAACAC | -0.147 |
| CAGTGGTC | -0.111 |
| CCGGTGCG | 0.0158 |
| GGTCCTGA | 0.116 |
| CCACTCTA | 0.178 |
| GACACTCA | -0.251 |
| AATTTTCA | 0.119 |
| ACCGTCCG | -0.165 |
| CTGCTGGC | -0.155 |
| AAATATTT | 0.0459 |
| CGCAGCTA | 0.34 |
| ATATACCG | -0.00748 |
| AGTACACC | -0.193 |
| TAATGCGA | -0.0341 |
| CTTTCACC | -0.202 |

| Sequence | PBM E-score |
| --- | --- |
| ACAGCTTG | -0.199 |
| ACTCCACT | 0.0961 |
| CTGCCAGA | 0.234 |
| AAGCCGGA | 0.186 |
| AACGTCGC | -0.00983 |
| CTTGAACA | 0.114 |
| CAAGAGCC | 0.115 |
| ATGTAATA | 0.139 |
| GCGGACCA | 0.0166 |
| TTGAGAAA | 0.207 |
| CTGTAAGC | -0.0646 |
| CAAGATCG | -0.0445 |
| CTGTGGAA | 0.276 |
| GGTGCATA | 0.1 |
| CACTGGGC | -0.0523 |
| GCTAATCC | -0.0671 |
| CTTCACCC | 0.0369 |
| AAATTCTT | 0.0384 |
| TACAAGGA | 0.0703 |
| GGCTCCTA | 0.245 |
| AATCCGGT | 0.166 |
| CAGGGGAC | -0.0253 |
| CGATGGCG | -0.21 |
| TATCTGCA | -0.00846 |
| ACCTCCCG | -0.179 |

| Sequence | PBM E-score |
| --- | --- |
| GCCGTTCC | -0.00804 |
| TGCGCTAA | 0.141 |
| CAAACACG | -0.0267 |
| GACTAGAC | -0.0113 |
| CAGCCCGC | -0.0661 |
| GTTACGAA | 0.00332 |
| ACGTGCAA | -0.109 |
| GAAACCAC | 0.131 |
| GTCTCGAA | -0.0587 |
| AGTCTCTC | -0.232 |
| AAACAATA | 0.0136 |
| ACGCTGCC | 0.339 |
| ATTGGCAG | 0.0782 |
| CAGCAAAG | -0.202 |
| TATCTTGA | -0.103 |
| CCCAAGAA | 0.236 |
| GTTATAAC | 0.107 |
| ATAACTCG | -0.0437 |
| AACAGAGT | -0.15 |
